The RNAGym collection of RNA variant scans (doi:10.1093/nar/gkz1192)
Read counts are not given, so values of variants with three or more changes are uncertain.

B1: CPEB3 Ribozyme (parent)
chain: UAACAGGGGGCCACAGCAGAAGCGUUCACGUCGCAGCCCCUGUCAGAUUCUGGUGAAUCUGCGAAUUCUGCUGUAUAUCUC

Variants of: B1
Test: self-cleavage, relative activity (ratio to wild type); higher = more cleavage; in vitro, sequencing
Procedure, shortened: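 Relative activity compares each variant's cleaved/total read fraction with that of the unmutated ribozyme. To get these fractions, barcoded CPEB3 ribozyme libraries from rounds of error-prone PCR were transcribed with T7 RNA polymerase for 5 hours at 37°C and then given 15 min of DNase I treatment before EDTA was added. The RNAs were reverse transcribed with template switching and sequenced on Illumina, and DNA sequencing linked barcodes to variants. A minimum of 5 reads applied, and three batches were averaged.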

Variant | self-cleavage
UAACAGAGGGCCACAGCGGAAGCGUUCACGUCGCAGCCCCUGUCAGAUACUGGCGAAUCAGCGAAUUCUGCUGUAUAUCUC [G7A A18G U49A U54C U60A] | 0.05
UAACAGAGGGCCACAGCGGAAGCGUUCACGUCGCAGCCCCUGUCAGAUCCUGGUGAAUCUGCGGAUCCUGCUGUAUAUCUC [G7A A18G U49C A64G U67C] | 0
UAACAGAGGGCCACAGCGGAAGCGUUCACGUCGCAGCCCCUGUCAGAUUCUGGCGAAUCUGCGAAUUCUGCUGUAUAUCUC [G7A A18G U54C] | 0.2
UAACAGAGGGCCACAGCUGAAGCGUUCGCGUCGCAGCCCUGGUCAGAUUCUGGUGAGUCUGCGAAUUCUGCUGUAUAUCUC [G7A A18U A28G C40U U41G A57G] | 0.04
UAACAGAGGGCCACAGCUGAAGCGUUCACGUCGCGGCCCCUGUCAGAUUCUGGUGAAUCUGCGAAUCCUACUGGAUAUCUC [G7A A18U A35G U67C G70A U74G] | 0.04
UAACAGAGGGCCACAGCUGAAGCGCUCACGUCGCAGCCCCUGUCAGAUUCUGGUGAACCUGCGAAUUCUGCUGUAUAUCUC [G7A A18U U25C U58C] | 0.16
UAACAGAGGGCCACAGCUGAAGCGUUCACGUCGCAGCCCCUGCCAGAUUCUGGUGAAUCUGCGAAUUCUGCUGUAUAUCUU [G7A A18U U43C C81U] | 0.05
UAACAGAGGGCCACAGCUGAAGCGUUCACGUCGCAGCCCCUGUCAGAUUCAGGUGAAUCUGCGAAUUCCGCUGUAUAUCUC [G7A A18U U51A U69C] | 0.06
UAACAGAGGGCCACAGCAGCGGCGUUCGCGUCCCAGCCCCUGCCAGAUUCUGGUGUAUCUGCGAAUUCUGCUGUAUAUCUC [G7A A20C A21G A28G G33C U43C A56U] | 0.17
UAACAGAGGGCCACAGCAGGGGCGUUCACGUCGCAGCCCCUGUCAGAUUCUGGUGAAUCUGCGAAUUCUGCUGUAUGUCUC [G7A A20G A21G A77G] | 0.06
UAACAGAGGGCCACAGCAGGAGCGUUCUCGUCGCAGCCCCUGUCAGAUUCUGGUGAAUCUGCGAAUUCUGCUGUAUGUCUC [G7A A20G A28U A77G] | 0.13
UAACAGAGGGCCACAGCAGGAGCGUUCACGUCGCAGCCCCUGUCUGAUACUGGUGAAUCUGCGAAUUCUGCUGUAUAUCUC [G7A A20G A45U U49A] | 0.06
UAACAGAGGGCCACAGCAGGAGCGUUCACGUCGCAGCCCCUGUCAGGUUCUGGUGAAUCUGCGGAUUCUGCUGUAUAUCUC [G7A A20G A47G A64G] | 0.06
UAACAGAGGGCCACAGCAGGAGCGUUCACGUCGCAGCCCCUGUCAGAUUCUGGUGUAGCUGCGAAUUCUGCUGUAUAUUUC [G7A A20G A56U U58G C79U] | 0.09
UAACAGAGGGCCACAGCAGGAGCGUUCACGUCGCAGCCCCUGUCAGAUUGUGGCGAACCUGCGAAUCCAGCUGUAUAUCUC [G7A A20G C50G U54C U58C U67C U69A] | 0.16
UAACAGAGGGCCACAGCAGGAGCGUUCACGUCGCAGCCCCUGUCAGAUUGUGGUGAACCUGCGAAUCCAGCUGUAUAUCUC [G7A A20G C50G U58C U67C U69A] | 0.08
UAACAGAGGGCCACAGCAGGAGCGUUCACGUCGCAUCCCCAGUCGGGUUCUGGUGAAUCUGCGAAUUCCGCUGUAUAUCUC [G7A A20G G36U U41A A45G A47G U69C] | 0.05

Variant | self-cleavage
UAACAGAGGGCCACAGCAGGAGCGAUCACGUCGCAGCCCCUGUCAGAUUCUGGUGAAUCUGCGAAUUCUGCCUAAUAUCUC [G7A A20G U25A U72C G73U U74A] | 0.06
UAACAGAGGGCCACAGCAGGAGCGUGCACGUCGCAGCCCCUGUCGGAUUCUGUUGAAUCUGCGAAUCCUGCUGUAUAUCUC [G7A A20G U26G A45G G53U U67C] | 0.04
UAACAGAGGGCCACAGCAGGAGCGUUCACGUCGCAGCCCCUGUCAGACUCUGGUGAAUCUGCGAGUUCACCUGUAUAUCCC [G7A A20G U48C A65G U69A G70C U80C] | 0.02
UAACAGAGGGCCACAGCAGGAGCGUUCACGUCGCAGCCCCUGUCAGACUCUGGUGAAUCUGCGAAUUCUGCUGUAUACCUC [G7A A20G U48C U78C] | 0.23
UAACAGAGGGCCACAGCAGGAGCGUUCACGUCGCAGCCCCUGUCAGAUUCAGGUGAAUCUGCGUAUUCUGCUGUAUAACUC [G7A A20G U51A A64U U78A] | 0.22
UAACAGAGGGCCACAGCAGGAGCGUUCACGUCGCAGCCCCUGUCAGAUUCUGGUGAAUCUGCGAAUACAGCUGUAUAUCCC [G7A A20G U67A U69A U80C] | 0.06
UAACAGAGGGCCACAGCAGUAGCGUUCACGUCGCUGCCCCUGCCAGAUUCUGGUGGAUCUGCGAAUUCUGCUGCAUAUCUC [G7A A20U A35U U43C A56G U74C] | 0.06
UAACAGAGGGCCACAGCAGUAGCGUUCACGUCGCAGCCCCUGUCUGAUUCUGGUGAAUCUGCGAAUUUUGCUGUAUAACUC [G7A A20U A45U C68U U78A] | 0.05
UAACAGAGGGCCACAGCAGUAGCGUUCACGUCGCAGCCCCUGUCAGAUUCUGGUGUAUCUGCGAAUUCUGCUGUAUAUCUC [G7A A20U A56U] | 0.18
UAACAGAGGGCCACAGCAGAGGCGUUCGCGUCUCAGCCCCUGUCCGAUUCUGGCGAAUCUGCGAAUUCUGCUGUAUAUCUC [G7A A21G A28G G33U A45C U54C] | 0.04
UAACAGAGGGCCACAGCAGAGGCGUUCACGUCGCGGCCCCCGCCAGAUUCUGGUGAAUCUGCGAAAUCUGCUGUAUAUCCC [G7A A21G A35G U41C U43C U66A U80C] | 0.1
UAACAGAGGGCCACAGCAGAGGCGUUCACGUCGCGGCCCCUGUCAGAUUCUGGUGAAACUGCUAACUCUGCUGUAUAUCUC [G7A A21G A35G U58A G63U U66C] | 0.12
UAACAGAGGGCCACAGCAGAGGCGUUCACGUCGCAGCCCCUGUCAGCUUCUGGUGUAUCUGCGAAUUCUGCCGUAUACCUC [G7A A21G A47C A56U U72C U78C] | 0.12
UAACAGAGGGCCACAGCAGAGGCGUUCACGUCGCAGCCCCUGUCAGGUUCUGGUGAAUCUGCGAACUCUGCUGUAUAUCUC [G7A A21G A47G U66C] | 0.04
UAACAGAGGGCCACAGCAGAGGCGUUCACGUCACAGCCCCUGUCAGAUCCUGGUGAAUCUGCGAAUUCUGCUGUAUAUCUC [G7A A21G G33A U49C] | 0.16
UAACAGAGGGCCACAGCAGAGGCGCUCACGUCGCAGCCCCUGUCAGAUUCUGGUGAAUCUGCGAAUUCUGCUGUAUAUCUC [G7A A21G U25C] | 0.28
UAACAGAGGGCCACAGCAGAGGCGUCCACGUCGCAGCCCCUGUCAGAUUCUGGUGAAUCUGCGAAUUCUGCCGUAUAUCUC [G7A A21G U26C U72C] | 0.05
